Experimental findings from the RNAGym collection of RNA variant scans (doi:10.1073/pnas.2313332121) are described below.

This sample is rich in variants without activity. A value given as a limit tells only on which side of the number the result lay.

First the molecules themselves.
B1: TPR 5TU (parent)
chain: GGAUCUUCUCGAUCUAACAAAAAAGACAAAUCUGCCACAAAGCUUGAGAGCAUCUUCGGAUGCAGAGGCGGCAGCCUUCGGUGGCGCGAUAGCGCCAACGUUCUCAACUAUGACACGCAAAACGCGUGCUCCGUUGAAUGGAGUUUAUCAUG

In this data set the parent is B1. Nature of the data set: polymerase ribozyme fitness, log enrichment relative to wild type (log ratio); higher = more active; in vitro selection for triplet polymerase activity. In short, it runs like this: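 The heterodimeric triplet polymerase ribozyme's subunits were each mutagenized into PCR-built libraries and transcribed. Every library was selected once, in triplicate, by annealing with a biotinylated primer, the partner subunit and triplets, incubating frozen at −7 °C, gel-excising extended constructs, capturing on streptavidin beads and running RT-PCR. Input and output libraries were Illumina-sequenced, with genotypes kept only at ≥10 input reads and ≥1 read per output. Fitness, from inverse-variance-weighted replicate averages, is the base-2 logarithm of genotype enrichment over wild-type enrichment.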
For G71C A91U G136C, the “polymerase ribozyme fitness (log ratio)” value was at most -4.2. The result for G71A U77A G81C A89C U101G C114U reads at most -4.2. Regarding A73G C96U C114G, the “polymerase ribozyme fitness (log ratio)” value was at most -4.2. G71C G92C: the “polymerase ribozyme fitness (log ratio)” value is at most -4.2. Next, G70A A110G A142G: -4.14. C72G C99U U101G A142U: the “polymerase ribozyme fitness (log ratio)” value is at most -4.2. As to C72U C87A A98U A138C, the “polymerase ribozyme fitness (log ratio)” value was at most -4.2. Turning to C72U C93G A106G A121U, the “polymerase ribozyme fitness (log ratio)” value is -2.98.

C72G G86U: the “polymerase ribozyme fitness (log ratio)” value was at most -4.2. Next, G71C C87G G141A: at most -4.2; A73G C87G C96A C118U: at most -4.2; C69U G70A C99A G100A: at most -4.2. C69U C76A C93U: the “polymerase ribozyme fitness (log ratio)” value is at most -4.2.

As for G70U U82G G86U U104G U109C A122U G133U U139C G152C, the “polymerase ribozyme fitness (log ratio)” value is at most -4.2. With G71U C93U U104G C149A, the “polymerase ribozyme fitness (log ratio)” value is at most -4.2. Take C69U C87U A91C U135A: the “polymerase ribozyme fitness (log ratio)” value is at most -4.2.

Turning to C69A G70A G92C G152A, the “polymerase ribozyme fitness (log ratio)” value is at most -4.2. Consider C69U G94C, for which the “polymerase ribozyme fitness (log ratio)” value is -1.65. For the variant G71U A73U A97G U145G, the “polymerase ribozyme fitness (log ratio)” value was at most -4.2. With G71C G84A C118A C129A G136U G141A, the “polymerase ribozyme fitness (log ratio)” value is at most -4.2. In the case of A73C A89U G94U A98G, the “polymerase ribozyme fitness (log ratio)” value is at most -4.2. For G70A C96U A121G G128U U130C C131G U144G, the “polymerase ribozyme fitness (log ratio)” value was at most -4.2. As to C72G C116U A121U, the “polymerase ribozyme fitness (log ratio)” value was at most -4.2. Regarding C69G G86C C103U, the “polymerase ribozyme fitness (log ratio)” value was at most -4.2. Turning to C69G U78A G94U A97C C99U, the “polymerase ribozyme fitness (log ratio)” value is at most -4.2. Next, G71C C95U U135A: at most -4.2; A73C G83C: at most -4.2. As for A73U G74U A89C C93G C95G, the “polymerase ribozyme fitness (log ratio)” value is at most -4.2. For the variant G71C A137G, the “polymerase ribozyme fitness (log ratio)” value is at most -4.2.

In the case of C69G U101G G133U, the “polymerase ribozyme fitness (log ratio)” value was -3.95. For the variant G71U U90A C125U, the “polymerase ribozyme fitness (log ratio)” value was at most -4.2. As for C72U C87A C93U G112C G126U C149A, the “polymerase ribozyme fitness (log ratio)” value is at most -4.2. Consider G71A G74A A91C C108A G136C, for which the “polymerase ribozyme fitness (log ratio)” value is at most -4.2. As for G71C C85A C99G C116U U127C, the “polymerase ribozyme fitness (log ratio)” value was at most -4.2. For the variant C72U G92A C103G, the “polymerase ribozyme fitness (log ratio)” value was at most -4.2. As to G71A C76G U82A G83C C131A, the “polymerase ribozyme fitness (log ratio)” value was at most -4.2.

Regarding C72U, the “polymerase ribozyme fitness (log ratio)” value is -0.00972. Take C72G: the “polymerase ribozyme fitness (log ratio)” value is -3.79.

For the variant C69G C85U U101G, the “polymerase ribozyme fitness (log ratio)” value is -1.25. In the case of C72A G83A A150G, the “polymerase ribozyme fitness (log ratio)” value is at most -4.2. Consider C72U C95U G133A, for which the “polymerase ribozyme fitness (log ratio)” value was at most -4.2. As for A73C A107G, the “polymerase ribozyme fitness (log ratio)” value is at most -4.2. Consider G70A U78C G88U U104G A113G G128U U135A, for which the “polymerase ribozyme fitness (log ratio)” value is at most -4.2. As for A73G U77G C103G G136U, the “polymerase ribozyme fitness (log ratio)” value is at most -4.2. As for G70C A142U U144A U148A, the “polymerase ribozyme fitness (log ratio)” value is at most -4.2. For G70C G84U A107U, the “polymerase ribozyme fitness (log ratio)” value is at most -4.2.

On to G71A C96A, for which the “polymerase ribozyme fitness (log ratio)” value is -3.18. As to G71A C96G, the “polymerase ribozyme fitness (log ratio)” value is -3.31. Regarding C69U C132G G140U, the “polymerase ribozyme fitness (log ratio)” value is -1.

Turning to G71C G92C G143U U144G, the “polymerase ribozyme fitness (log ratio)” value was at most -4.2. In the case of A73G C93U A138G G141U, the “polymerase ribozyme fitness (log ratio)” value was at most -4.2. As for G71C A73C C108U U146C C149G, the “polymerase ribozyme fitness (log ratio)” value is at most -4.2.

Regarding A73C G81C A110G A121G, the “polymerase ribozyme fitness (log ratio)” value was at most -4.2. For the variant C72U G152A, the “polymerase ribozyme fitness (log ratio)” value is -2.42. Consider C72U C85G C103A, for which the “polymerase ribozyme fitness (log ratio)” value is at most -4.2. Consider A73G G94A U148C, for which the “polymerase ribozyme fitness (log ratio)” value was -3.66. As to G70U G83C C95G A97U C125G, the “polymerase ribozyme fitness (log ratio)” value was at most -4.2.

For G70A A91U A122G G152U, the “polymerase ribozyme fitness (log ratio)” value is at most -4.2. On to G70C U102G A115C A142C, for which the “polymerase ribozyme fitness (log ratio)” value was at most -4.2. With G70C A73C U78A G86U, the “polymerase ribozyme fitness (log ratio)” value was at most -4.2. As for C69U C72U, the “polymerase ribozyme fitness (log ratio)” value is -1.99. Next, C72U U90G U109A A122G: at most -4.2; C72U A89U A122U U146A: -0.532; C72G C93A C108U C114G: at most -4.2. Next, C69G C75G C87A C93U U145A: at most -4.2; C69A C93U C103G U104A U148G: at most -4.2. The result for C69U C93A A107G reads at most -4.2; that for C72A C125U G136U, at most -4.2; that for C72U G126U C132A, -4.12. As for G70C G136C, the “polymerase ribozyme fitness (log ratio)” value is at most -4.2. Turning to G68U G136A, the “polymerase ribozyme fitness (log ratio)” value was -3.9. Turning to C72U C99G U109C, the “polymerase ribozyme fitness (log ratio)” value is at most -4.2. Consider C72A G81C G86U G141C, for which the “polymerase ribozyme fitness (log ratio)” value is at most -4.2. Next, C69G A91U U102C: at most -4.2; C72A C85G C87G C99U G141U: at most -4.2; A73G C93U C123G U151G: at most -4.2. The result for G71C U109C A115G reads at most -4.2. Turning to G71A C85U C103G G124A U145G A150G, the “polymerase ribozyme fitness (log ratio)” value is at most -4.2. On to G68U C85G U139A U145G U146G, for which the “polymerase ribozyme fitness (log ratio)” value was at most -4.2. Regarding G71U A89U C95A, the “polymerase ribozyme fitness (log ratio)” value is -3.94. Next, C69U C96G C125U: -1.78; C69U A73U: -2.64; C72U G80A C93U C96G: at most -4.2.
